Assay results taken from IntAct's records for PubMed 31515488.

B1: Cytoplasmic dynein 1 light intermediate chain 1 (Homo sapiens), Q9Y6G9 (parent)
chain: MAAVGRVGSFGSSPPGLSSTYTGGPLGNEIASGNGGAAAGDDEDGQNLWSCILSEVSTRSRSKLPAGKNVLLLGEDGAGKTSLIRKIQGIEEYKKGRGLEYLYLNVHDEDRDDQTRCNVWILDGDLYHKGLLKFSLDAVSLKDTLVMLVVDMSKPWTALDSLQKWASVVREHVDKLKIPPEEMKQMEQKLIRDFQEYVEPGEDFPASPQRRNTASQEDKDDSVVLPLGADTLTHNLGIPVLVVCTKCDAISVLEKEHDYRDEHFDFIQSHIRKFCLQYGAALIYTSVKENKNIDLVYKYIVQKLYGFPYKIPAVVVEKDAVFIPAGWDNDKKIGILHENFQTLKAEDNFEDIITKPPVRKFVHEKEIMAEDDQVFLMKLQSLLAKQPPTAAGRPVDASPRVPGGSPRTPNRSVSSNVASVSPIPAGSKKIDPNMKAGATSEGVLANFFNSLLSKKTGSPGGPGVSGGSPAGGAGGGSSGLPPSTKKSGQKPVLDVHAELDRITRKPVTVSPTTPTSPTEGEAS
partner: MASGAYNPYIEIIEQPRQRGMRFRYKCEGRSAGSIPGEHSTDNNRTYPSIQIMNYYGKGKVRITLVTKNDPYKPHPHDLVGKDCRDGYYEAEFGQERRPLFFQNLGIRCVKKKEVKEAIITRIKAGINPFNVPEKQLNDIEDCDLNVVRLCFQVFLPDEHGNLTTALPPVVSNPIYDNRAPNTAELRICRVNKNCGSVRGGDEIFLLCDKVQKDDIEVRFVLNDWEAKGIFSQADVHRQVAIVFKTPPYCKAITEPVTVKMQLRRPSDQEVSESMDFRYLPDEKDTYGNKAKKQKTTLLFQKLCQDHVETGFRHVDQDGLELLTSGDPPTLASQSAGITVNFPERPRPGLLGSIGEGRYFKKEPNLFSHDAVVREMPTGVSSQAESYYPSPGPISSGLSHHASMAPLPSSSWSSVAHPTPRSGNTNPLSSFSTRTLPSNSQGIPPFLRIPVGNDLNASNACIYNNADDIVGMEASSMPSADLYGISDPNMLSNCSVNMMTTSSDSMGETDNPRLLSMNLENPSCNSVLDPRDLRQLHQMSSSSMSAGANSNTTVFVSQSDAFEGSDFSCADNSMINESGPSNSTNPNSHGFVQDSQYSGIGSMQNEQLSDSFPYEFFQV
B2: Properdin (Homo sapiens), P27918 (parent)
chain: MITEGAQAPRLLLPPLLLLLTLPATGSDPVLCFTQYEESSGKCKGLLGGGVSVEDCCLNTAFAYQKRSGGLCQPCRSPRWSLWSTWAPCSVTCSEGSQLRYRRCVGWNGQCSGKVAPGTLEWQLQACEDQQCCPEMGGWSGWGPWEPCSVTCSKGTRTRRRACNHPAPKCGGHCPGQAQESEACDTQQVCPTHGAWATWGPWTPCSASCHGGPHEPKETRSRKCSAPEPSQKPPGKPCPGLAYEQRRCTGLPPCPVAGGWGPWGPVSPCPVTCGLGQTMEQRTCNHPVPQHGGPFCAGDATRTHICNTAVPCPVDGEWDSWGEWSPCIRRNMKSISCQEIPGQQSRGRTCRGRKFDGHRCAGQQQDIRHCYSIQHCPLKGSWSEWSTWGLCMPPCGPNPTRARQRLCTPLLPKYPPTVSMVEGQGEKNVTFWGRPLPRCEELQGQKLVVEEKRPCLHVPACKDPEEEEL
partner: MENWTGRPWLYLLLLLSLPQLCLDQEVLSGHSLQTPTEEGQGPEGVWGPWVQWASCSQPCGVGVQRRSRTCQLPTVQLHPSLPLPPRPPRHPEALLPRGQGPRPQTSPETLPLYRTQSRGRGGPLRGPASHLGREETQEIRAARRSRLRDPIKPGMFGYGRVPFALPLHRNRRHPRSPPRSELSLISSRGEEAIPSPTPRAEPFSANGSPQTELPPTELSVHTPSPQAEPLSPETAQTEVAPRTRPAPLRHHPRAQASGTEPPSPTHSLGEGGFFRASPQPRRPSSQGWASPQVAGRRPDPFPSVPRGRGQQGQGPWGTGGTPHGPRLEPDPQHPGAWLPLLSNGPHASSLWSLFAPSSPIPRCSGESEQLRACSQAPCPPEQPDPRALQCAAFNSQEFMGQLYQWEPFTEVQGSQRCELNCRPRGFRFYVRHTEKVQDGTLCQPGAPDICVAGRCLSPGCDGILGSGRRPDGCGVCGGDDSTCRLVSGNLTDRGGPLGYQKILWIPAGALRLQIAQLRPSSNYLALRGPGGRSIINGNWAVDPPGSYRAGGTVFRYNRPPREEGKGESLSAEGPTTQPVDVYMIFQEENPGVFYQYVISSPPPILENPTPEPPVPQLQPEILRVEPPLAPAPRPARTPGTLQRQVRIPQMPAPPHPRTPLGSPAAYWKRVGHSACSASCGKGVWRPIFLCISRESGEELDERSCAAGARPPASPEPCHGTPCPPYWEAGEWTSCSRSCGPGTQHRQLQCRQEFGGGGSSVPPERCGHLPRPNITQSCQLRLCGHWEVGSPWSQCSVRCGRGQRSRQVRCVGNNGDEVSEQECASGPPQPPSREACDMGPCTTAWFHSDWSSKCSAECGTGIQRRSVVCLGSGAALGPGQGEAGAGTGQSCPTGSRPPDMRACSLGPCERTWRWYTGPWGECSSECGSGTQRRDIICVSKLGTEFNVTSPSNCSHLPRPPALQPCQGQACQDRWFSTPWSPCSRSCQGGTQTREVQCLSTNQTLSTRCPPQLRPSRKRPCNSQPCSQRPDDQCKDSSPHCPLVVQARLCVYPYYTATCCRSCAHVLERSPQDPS
B3: Myeloid differentiation primary response protein MyD88 (Homo sapiens), Q99836 (parent)
chain: MAAGGPGAGSAAPVSSTSSLPLAALNMRVRRRLSLFLNVRTQVAADWTALAEEMDFEYLEIRQLETQADPTGRLLDAWQGRPGASVGRLLELLTKLGRDDVLLELGPSIEEDCQKYILKQQQEEAEKPLQVAAVDSSVPRTAELAGITTLDDPLGHMPERFDAFICYCPSDIQFVQEMIRQLEQTNYRLKLCVSDRDVLPGTCVWSIASELIEKRCRRMVVVVSDDYLQSKECDFQTKFALSLSPGAHQKRLIPIKYKAMKKEFPSILRFITVCDYTNPCTKSWFWTRLAKALSLP
partner: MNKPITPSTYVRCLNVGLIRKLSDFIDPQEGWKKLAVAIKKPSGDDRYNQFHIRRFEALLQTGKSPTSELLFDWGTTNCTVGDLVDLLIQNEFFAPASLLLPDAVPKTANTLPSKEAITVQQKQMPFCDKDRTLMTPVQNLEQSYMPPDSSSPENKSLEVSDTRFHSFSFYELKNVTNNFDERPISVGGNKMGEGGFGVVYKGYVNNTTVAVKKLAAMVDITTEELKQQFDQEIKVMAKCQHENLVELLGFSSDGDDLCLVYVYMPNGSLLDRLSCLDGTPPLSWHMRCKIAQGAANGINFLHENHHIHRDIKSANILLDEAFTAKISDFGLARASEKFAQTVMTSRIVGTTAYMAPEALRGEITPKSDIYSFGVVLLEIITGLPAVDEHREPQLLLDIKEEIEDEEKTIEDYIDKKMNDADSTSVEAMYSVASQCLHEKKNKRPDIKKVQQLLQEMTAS

Variants of: B1
Details: with rel_human REL

| effect of a mutation on the interaction | Variant |
| --- | --- |
| disrupting interaction strength | Q277R |
| with no effect | V146A |

Variants of: B2
Details: with atl4_human ADAMTSL4, Q6UY14

| effect of a mutation on the interaction | Variant |
| --- | --- |
| with no effect | P409L |
| with no effect | M420T |

Variants of: B3
Details: with irak4_human IRAK4, Q9NWZ3

| effect of a mutation on the interaction | Variant |
| --- | --- |
| disrupting interaction strength | L93P |
| disrupting interaction strength | R196C |
